Measurements reported in PubChem BioAssay AID1508624 (National Center for Advancing Translational Sciences (NCATS), 2021).
Hit rate of the full screen: of about 48,000 compounds, about 120 (0.25%) were called active. Roughly 4% stayed inconclusive and do not appear here. Calls follow the shape of the dose curve; as a rule, active = well fitted activation curve with a large enough effect; inconclusive = small, poorly fitted or top-dose-only effect, or another doubt; inactive = no such curve, though single readings can be large or run the other way. Some of the results follow.

Test: Primary qHTS for Identification of Small Molecule Activators of Huntingtin-Antisense Promoter Activity; also: nearly all actives have a fitted effect of over 55% in size
Details: HEK293 HTT-AS promoter firefly luciferase reporter, 24 h; series mostly up to 57.5 µM; activity change, positive = activation: at the top concentration
Summary of the method: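 Quantitative HTS used concentration series of up to 57.5 uM final on HEK293 luciferase reporter cells, 24 h at 37 degrees C. Readout was Dual-Glo firefly luminescence.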

Activity change, positive = activation, inactive:
Cc1nnc(NC(=O)CSc2nccn2-c2ccc(Cl)cc2)s1 -14.8%
CCC(C)n1c(SCc2ccc(C(C)(C)C)cc2)nc2ccsc2c1=O (configuration not stated) -13.2%
CCCCCCCCCCC[C@@H](C[C@@H]1OC(=O)[C@H]1CCCCCC)OC(=O)[C@H](CC(C)C)NC=O -1.48%
Cc1cccc(C)c1Nc1c(-c2cccs2)nc2ncccn12 -26.5%
CCCCC(=O)Nc1cc2nn(-c3ccc(OCC)cc3)nc2cc1C 26.4%
Cc1ccc(OCC(=O)Nc2cc(-c3nc4ccccc4[nH]3)ccc2C)c(C)c1 -22.8%
Cc1cccc(Cn2cc(S(=O)(=O)c3ccc(Cl)cc3)c(=O)c3cc4c(cc32)OCO4)c1 -20.2%
Cn1c(=O)c2c(SCC(=O)NCC3CCCO3)nc(-c3cccc(F)c3)nc2n(C)c1=O (configuration not stated) -9.81%
Cc1cccc(OCCSc2nc3ccc(NC(=O)c4cccs4)cc3s2)c1 -28.3%
O=C(C1CC1)N1CCc2cc(Br)cc(S(=O)(=O)N3CCN(c4cccc(Cl)c4)CC3)c21 1.06%
CCOC(=O)c1cc(-c2ccccc2)n(-c2cccc(C(=O)Nc3cccc(C)c3)c2)c1C -15.8%
O=C(Nc1ccc2nc(SCC(=O)N3CCCC3)sc2c1)c1ccc(Br)cc1 -17.1%
Cc1ccc(CSc2ccc3nnc(CCNS(=O)(=O)c4ccc(C)cc4)n3n2)cc1 -22.3%
Cc1cccc(OCC(=O)OCc2cc(=O)n3nc(-c4cccs4)sc3n2)c1 14%
CCc1nn(Cc2cccc(F)c2)c(=O)c2cc3cc(C)ccc3n12 -10.9%
NCC1CCC(C(=O)O)CC1 (configuration not stated) -9.96%
Cc1ccc(-n2ncc(C(=O)N3CCN(c4ccccn4)CC3)c2C2CCN(C(=O)OC(C)(C)C)CC2)cc1 -1.26%
CCC(C)NC(=O)Cn1c(=O)n(-c2ccc(Cl)c(Cl)c2)c(=O)c2c(C)c(C(=O)N(CC)CC)sc21 (configuration not stated) -16.7%
Cc1ccc(NC(=O)c2cc(S(=O)(=O)N3CCCc4ccccc43)ccc2F)cc1F -36.6%
COC(=O)c1ccccc1NC(=O)Cn1c(=O)nc(-c2ccccc2)c2cc(Cl)ccc21 -3.36%
COc1ccccc1CCNC(=O)Cc1c(C)c2cc3c(C(C)(C)C)coc3c(C)c2oc1=O -16.2%
COc1ccc(CCNC(=O)c2ccc(-n3c(C)cc4c3CCCC4)cc2)cc1OC 9.05%
CCCc1cc(=O)[nH]c(SCc2nc(-c3ccc(C)cc3)no2)n1 -16.7%
Cc1cccc(NC(=O)Cn2cnc(S(=O)(=O)N3CCCC3)c2)c1C -12.4%
CC(C)Oc1ccc(CNC(=O)Nc2ccc3c(c2)N(C)C(=O)c2ccccc2S3)cc1 -50.3%
CCCSc1ncc(Cl)c(C(=O)Nc2c(C(=O)Nc3ccccc3)oc3ccccc23)n1 -4.83%
COc1ccc(N2CCN(S(=O)(=O)CCNC(=O)COc3cccc(OC)c3)CC2)cc1 -4.7%
Cc1cccc(Cn2c(SCc3ccc(C(=O)N4CCC(C)CC4)cc3)nc3ccncc32)c1 -30.3%
CSc1ncc(C(=O)NCc2ccc(Cl)cc2)c(C(F)(F)F)n1 -12.7%
CCOC(=O)CSc1nc(-c2ccccc2)cc(C(F)(F)F)c1C#N 14.5%
Cc1nn(-c2ccccc2)c(OC(=O)c2ccc(F)cc2)c1S(=O)(=O)c1ccccc1 -17.2%
CCN(C(=O)CCNC(=O)Cn1cnc2ccccc2c1=O)c1cccc(Cl)c1 -6.08%
CCCn1cc(S(=O)(=O)c2ccc(C)cc2)c(=O)c2cc(OC)c(OC)cc21 0%
COc1ccc(C2=C(C)C(N3CCC(C(=O)Nc4cc(C)ccc4C)CC3)=NS2(=O)=O)cc1 -12.8%
COC(=O)c1ccc(Cl)cc1NC(=O)NCc1c(-n2cccc2)sc2c1CCCC2 17%
O=C(Nc1cccc2cccnc12)c1cccc2ccccc12 22.5%
CCOc1ccc(C(=O)Nc2ccc(C(=O)OCc3cc(=O)n4ccsc4n3)cc2)cc1 -17.4%
COc1cccc(N2CCN(C(=O)c3cc4c(=O)n(Cc5cccs5)ccc4nc3C)CC2)c1 -27%
Cc1ccc(CNC(=O)Cn2ncc3c([nH]c4ccc(C)cc43)c2=O)cc1 -9.55%
COc1cc(C(=O)Nc2nc3c(s2)Cc2c(Br)ccc(OC)c2-3)cc(OC)c1OC -1.75%
CCC(Sc1nc2ccccc2c2nc(CCc3c(C)n[nH]c3C)nn12)C(=O)Nc1ccc(OC)cc1 (configuration not stated) -1.86%
COc1ccc(Cl)cc1NC(=O)CSc1c2c(nc3ccccc13)CCC2 -35.7%
O=C(c1ccc2c(c1)N(Cc1ccc(F)cc1)C(=O)c1ccccc1S2=O)N1CCOCC1 (configuration not stated) -13.9%
CCN(c1ccccc1)S(=O)(=O)c1ccc(NC(=O)c2cc(=O)c3cc(C)ccc3o2)cc1 5.26%
O=C(OCC1CCCO1)c1ccc2c(c1)N(Cc1cccc(Cl)c1)C(=O)c1ccccc1S2(=O)=O (configuration not stated) -15.6%
Cc1ccc(NC(=O)NCCOCCn2c(=O)oc3ccccc32)cc1F -5.48%
O=C1O[C@H](CO)[C@@H](O)[C@H](O)[C@H]1O -7.91%
Cn1c(=O)c2c(ncn2CC(=O)O)n(C)c1=O -3.39%
Cc1cc(C)c2c(n1)nn1c(C)c(CCC(=O)NCc3ccccc3Cl)c(C)nc21 -17.4%
COC(=O)c1c(C)sc(-c2c(-c3ccc4c(c3)OCCO4)[nH]c3[nH]c(=O)[nH]c(=O)c23)c1O -23.5%
CCOc1ccc(-c2cc3nc(C4CCN(C(=O)OC(C)(C)C)CC4)c(C(=O)Nc4ccc(C)cc4Cl)cn3n2)cc1 19.7%
O=S(=O)(c1ccc(Br)cc1)c1nnn2c1nc(Nc1cccc(C(F)(F)F)c1)c1sccc12 -11.6%
CN1CCSc2ccc(C(=O)NCc3ccccc3F)cc21 14.7%
O=C(CN(CCc1ccccc1)S(=O)(=O)c1ccccc1)NCc1ccc(Cl)cc1 -26.1%
COc1cc(CNc2ccc3c(c2)ncn3C(C)C)cc(OC)c1OC -28.2%
Cc1cc(Cl)ccc1Nc1ncnc2onc(C)c12 -19.2%
Cc1ccc(Cl)cc1N1CCN(C(=O)c2cc(S(=O)(=O)N3CCCCCC3)cn2C)CC1 -38%
Fc1ccccc1OCc1nc(-c2ccc(-n3cccc3)cc2)no1 13%
O=C(Nc1ccccc1Cl)C1CCN(c2nc3ccccc3[nH]2)CC1 -7.76%
COc1cccc(NC(=O)CSCn2nnc3c(=O)[nH]c(Cc4ccc(F)cc4)nc32)c1 15.6%
CN(Cc1ccc(F)cc1)S(=O)(=O)c1nnc(NC(=O)c2ccc(F)cc2)s1 -38.3%
COC(=O)c1ccc2c(c1)N(CC(=O)Nc1cccc(C(F)(F)F)c1)C(=O)c1ccccc1S2 -14.6%
O=C(CSc1nc2c([nH]c3ccccc32)c(=O)n1-c1ccccc1F)Nc1ccccc1C(F)(F)F -43.3%
COc1ccc(NC(=O)C2CCCN(S(=O)(=O)c3ccc4c(c3)CCCN4C(C)=O)C2)cc1 (configuration not stated) -28.2%
Cc1ccccc1-n1c(=O)c2c3c(sc2n2cnnc12)CCCC3 7.92% [at 11.5 µM, percent change from vehicle, -100% = no light]
COc1ccc(CNC(=O)C2CCN(c3nnc(-n4cccc4CNc4ccc(C)cc4)s3)CC2)c(OC)c1 -32.1%
Cc1ccc(S(=O)(=O)c2nc(-c3cccc(C)c3)oc2N2CCCCC2)cc1 -0.52%
O=S(=O)(Nc1cccc(-c2ccc(N3CCCC3)nn2)c1)c1ccc(F)cc1F 15.5%
COc1ccc(NC(=O)CSc2c3c(nc4ccccc24)CCC3)c(OC)c1 -10.9%
COc1ccc(N2CCN(C(=O)CN(C)S(=O)(=O)c3cccs3)CC2)cc1 -7.13%
COc1ccc(Cn2ccnc2SCC(=O)Nc2cc(C(F)(F)F)ccc2Cl)cc1 -0.536%
COc1cccc(Nc2sc(C(=O)c3ccc(F)cc3)c(N)c2C(=O)NCc2ccc(C)cc2)c1 -49.4%
COc1ccc(-c2cn3nc(N4CCCC(C(=O)NCc5ccccc5C)C4)sc3n2)cc1 (configuration not stated) 3.05%
CCOC(=O)c1ccccc1NC(=O)c1sc2ccccc2c1Cl 20.6%
CCN(CC)C(=O)Cn1c(=O)cc(C)c2c(C)nn(C)c21 12.9%
COc1ccc(CNC(=O)c2cc3c(=O)n4cccc(C)c4nc3s2)cc1 -1.44%
Cc1c(C(=O)Nc2ccc(F)c(F)c2)oc2ccc(S(=O)(=O)N(C)C3CCCCC3)cc12 -35.3%
CCOC(=O)c1ccc(NC(=O)C(C)N(c2ccc(OCC)cc2)S(C)(=O)=O)cc1 (configuration not stated) -11.7%
CCOC(=O)c1[nH]c(C)c(CCC(=O)NC(C)c2ccccc2)c1C (configuration not stated) -8.29%
CCN(CC)CCn1c2c(c(SCC(=O)Nc3cccc(C(F)(F)F)c3)nc1=O)CCC2 -19.4%
Cc1cccc(CNC(=O)Cc2ccc(NC(=O)N3CCCCc4ccccc43)cc2)c1 -16.7%
COc1ccc(CCNC(=O)CCCCn2c(=O)c3ccccc3n(Cc3ccc(Cl)cc3)c2=O)cc1OC -37.3%
COc1cccc(CNC(=O)c2oc3ccc4c(c3c2C)C(=O)CC(C)(C)O4)c1OC 26.9%
O=C(Nc1ccc(F)cc1)C1CCCN(c2ncnc3c2nc2n3CCCCC2)C1 (configuration not stated) -22.1%
Cc1ccc(N(C)C(=O)Cn2cc(S(=O)(=O)N3CCCC3)c(S(=O)(=O)N3CCCC3)c2)cc1 -5.79% [at 11.5 µM, percent change from vehicle, -100% = no light]
COc1cccc(-c2nc(CS(=O)(=O)CC(=O)NCCc3ccc(OC)c(OC)c3)c(C)o2)c1 -19.1%
Cc1ccc(C(=O)Nc2nc(-c3nnn(-c4cccc(Cl)c4C)c3C)ns2)cc1C -27%
COc1ccc(NS(=O)(=O)c2ccc3c(c2)CC(C)N3C(C)=O)c(OC)c1 (configuration not stated) -23.8%
Cn1c(=O)c2c(n3ncnc13)NC(=O)CC2c1cccc(F)c1 (configuration not stated) -9.19%
CCOC(=O)C1=C(CN2CCN(c3cccc(OC)c3)CC2)NC(=O)NC1c1ccc(OC)cc1 (configuration not stated) -18.9%
COc1ccc(NC(=O)c2oc3c(c2C)-c2nn(Cc4ccccc4Cl)cc2CC3)cc1OC -37.7%
Cc1ccc(-n2c(=O)c3c(cnn3C)n(CC(=O)Nc3c(C)cccc3C)c2=O)cc1 -17.9%
